About 2,200 (0.71%) of roughly 310,000 compounds showed an effect of 50% or more. The effect is printed as a negative number. This is one part of the list.

The target in this assay is human ether-à-go-go-related gene (hERG) potassium channel (human, UniProt Q12809). Description: primary screen, population patch clamp on CHO cells stably expressing hERG.
Sequence of human ether-à-go-go-related gene (hERG) potassium channel (Q12809 whole entry, looked up): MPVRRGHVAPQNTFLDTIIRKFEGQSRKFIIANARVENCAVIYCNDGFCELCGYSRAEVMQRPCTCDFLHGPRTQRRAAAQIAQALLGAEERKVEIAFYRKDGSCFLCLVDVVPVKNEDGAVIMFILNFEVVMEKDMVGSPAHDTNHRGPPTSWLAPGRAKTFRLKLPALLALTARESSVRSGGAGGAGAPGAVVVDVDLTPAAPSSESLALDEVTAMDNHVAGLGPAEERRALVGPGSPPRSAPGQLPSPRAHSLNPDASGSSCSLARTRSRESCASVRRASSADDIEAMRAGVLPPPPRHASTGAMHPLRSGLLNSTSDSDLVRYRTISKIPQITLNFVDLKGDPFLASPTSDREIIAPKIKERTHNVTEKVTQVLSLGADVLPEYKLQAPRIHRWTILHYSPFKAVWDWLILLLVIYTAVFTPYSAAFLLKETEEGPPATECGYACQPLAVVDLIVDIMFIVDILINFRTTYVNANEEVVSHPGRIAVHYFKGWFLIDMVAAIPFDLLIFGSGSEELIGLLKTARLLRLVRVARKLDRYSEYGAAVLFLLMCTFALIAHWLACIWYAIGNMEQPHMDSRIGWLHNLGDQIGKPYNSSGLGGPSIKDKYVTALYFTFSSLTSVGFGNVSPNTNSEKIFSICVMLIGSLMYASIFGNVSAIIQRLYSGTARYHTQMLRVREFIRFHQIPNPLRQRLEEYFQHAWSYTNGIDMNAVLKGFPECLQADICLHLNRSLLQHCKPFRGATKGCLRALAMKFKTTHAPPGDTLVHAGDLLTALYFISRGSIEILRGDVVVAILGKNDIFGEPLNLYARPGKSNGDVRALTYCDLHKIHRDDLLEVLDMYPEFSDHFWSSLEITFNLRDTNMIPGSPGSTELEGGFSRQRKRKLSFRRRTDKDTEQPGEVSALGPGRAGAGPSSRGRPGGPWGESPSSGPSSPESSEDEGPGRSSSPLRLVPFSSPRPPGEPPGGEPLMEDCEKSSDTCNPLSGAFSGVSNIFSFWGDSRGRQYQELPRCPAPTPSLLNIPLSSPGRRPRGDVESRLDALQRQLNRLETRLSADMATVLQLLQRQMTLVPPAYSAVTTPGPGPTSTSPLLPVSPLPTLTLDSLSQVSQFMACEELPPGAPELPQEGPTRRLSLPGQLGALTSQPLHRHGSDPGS
In the case of `O=C(O)C(=O)O.c1ccc(CCN(Cc2ccccc2)C2CCN(C3CCCC3)CC2)cc1`, the “hERG current change (%, negative = inhibition) at 1uM” value was -68.9%. As for `CCOc1ccc(OCc2cccc(C(=O)N(CC)CC)c2)cc1`, the “hERG current change (%, negative = inhibition) at 1uM” value is reported as -26.9%.

For `Cc1cnc(C(=O)OCC(=O)Nc2ccc(C)c(S(=O)(=O)N3CCCCC3)c2)cn1`, the “hERG current change (%, negative = inhibition) at 1uM” value is reported as 12.2%. In the case of `O=C(NCc1ccco1)c1ccc(Cn2cc([N+](=O)[O-])cn2)o1` it was 8.44%; in that of `O=C(CSc1nnc(-c2ccccc2)n1Cc1ccccc1)N1CCOCC1`, 4.4%.

With `CC(=O)Oc1ccc(S(=O)(=O)c2ccc(OC(C)=O)cc2)cc1`, the “hERG current change (%, negative = inhibition) at 1uM” value is on record as 14.1%. In the case of `COc1ccc2[nH]cc(C(=O)CN(C)CCc3ccc(OC)c(OC)c3)c2c1` it was -60.6%. On to `Cc1ccc(NC(=O)c2cccc(-n3cnnn3)c2)cc1Cl`, for which the “hERG current change (%, negative = inhibition) at 1uM” value is on record as -5.97%. In the case of `O=C1NCCC/C1=N/Nc1ccc(F)cc1` it was 9.32%; in that of `Cc1ccc(NC(=O)CNC(c2ccccc2)c2ccccc2)c(F)c1`, 6.13%; in that of `Cc1ccc(S(=O)(=O)N(CC(=O)NCCSCc2ccco2)c2cc(C)ccc2C)cc1`, 6.33%.

In the case of `Cc1nc(-c2cccc(NS(=O)(=O)c3ccc4ccccc4c3)c2)cs1`, the “hERG current change (%, negative = inhibition) at 1uM” value amounted to 5.6%.

Take `Cc1ccn(CCC(=O)Nc2ccc3c(c2)OCO3)n1`: the “hERG current change (%, negative = inhibition) at 1uM” value came out at 14.8%. In the case of `CCCn1c(-c2cccs2)nc2c1c(=O)[nH]c(=O)n2Cc1ccccc1`, the “hERG current change (%, negative = inhibition) at 1uM” value amounted to 7.22%. In the case of `Nc1cc(N)nc(SCC(=O)c2ccccc2)n1` it was 12.4%; in that of `CSCCC(NC(=O)CCC(=O)OC1CC[C@H]2[C@@H]3CC[C@H]4CC(=O)CC[C@]4(C)[C@H]3CC[C@]12C)C(=O)O` (stereo partly shown), 16.1%; in that of `C=CCNC(=O)CN(CCc1ccccc1)S(=O)(=O)c1ccccc1`, 6.87%. With `CCOc1cc(-c2c(C#N)c(N)nc3c2CCCC3C)ccc1O` (stereo not shown) the figure was -3.33%; with `CC(C(=O)N1CCCCC1)n1sc2ccccc2c1=O` (stereo not shown), 8.07%. For `O=C(NC(=S)Nc1ccc(CN2CCOCC2)cc1)c1ccco1`, the “hERG current change (%, negative = inhibition) at 1uM” value was 11.2%. In the case of `CCN(CC)c1ccc(/C=N/NC(=O)Cc2nnc(NC(=O)Nc3ccccc3)s2)cc1` it was 11.1%; in that of `CCOc1ccc(NC(=O)Cc2ccc(S(=O)(=O)N3CCOCC3)s2)cc1OCC`, 6.72%; in that of `Cc1cc(C)cc(NC(=O)C2C3C=CC(O3)C2C(=O)O)c1` (stereo not shown), 23.9%. In the case of `CCOC(=O)c1cnc(SCC#N)nc1N` it was 18.1%; in that of `Cc1cccc(OCC(O)CN2CCN(S(=O)(=O)c3ccc(C)cc3C)CC2)c1` (stereo not shown), 2.67%. In the case of `COc1ccc(-n2ncc3c(NCC4CCCO4)ncnc32)cc1` (stereo not shown) it was 28.8%; in that of `CCC(=O)NCCC(c1ccco1)c1ccccc1OC` (stereo not shown), 13.9%. As for `CCn1c(NCc2ccccc2NS(=O)(=O)c2ccc(C)cc2)nc2ccccc21`, the “hERG current change (%, negative = inhibition) at 1uM” value is 8.36%. Turning to `Cc1ccccc1COc1ccc(-c2nn[nH]n2)cc1`, the “hERG current change (%, negative = inhibition) at 1uM” value is 9.57%. With `CCCN(CC(=O)Nc1ccccc1C)C(=O)Cc1c(C)nc2ccccc2c1C` the figure was -39.3%; with `CN(C)C(CNC(=O)c1cc(S(=O)(=O)N(C)c2ccccc2)ccc1Cl)c1ccccc1` (stereo not shown), 3.7%; with `COC(=O)CCc1c(C)[nH]c(=S)[nH]c1=O`, 6.53%.

`O=C1CC(c2c(F)cccc2Cl)C2=C(COC2=O)N1` (stereo not shown): the “hERG current change (%, negative = inhibition) at 1uM” value amounted to 0.238%. In the case of `COc1ccc(C2C(C#N)=C(N)Oc3cc(O)ccc32)cc1Cl` (stereo not shown) it was 11.4%. With `CCOc1cc(/C=C2\C(=O)N(CCc3ccc(OC)c(OC)c3)C(C)=C2C(=O)OC)ccc1O` the figure was 16.8%.

Consider `Cc1ccc(OCC(=O)Nc2nc(-c3ccccn3)cs2)c(C)c1`, for which the “hERG current change (%, negative = inhibition) at 1uM” value came to 8.87%.

For `CC(C)Cc1nc(C#N)c(N2CCC(C(N)=O)CC2)o1`, the “hERG current change (%, negative = inhibition) at 1uM” value was 9.71%.

In the case of `Cc1cc(NC2CCCCC2)nc(NCc2ccccc2)n1`, the “hERG current change (%, negative = inhibition) at 1uM” value is on record as -2.46%. In the case of `Cc1ccc(S(=O)(=O)NC(C)C(c2cccs2)N2CCOCC2)cc1` (stereo not shown) it was 7.31%.

`Cc1ccc(NC(=O)CN2CCc3ccccc3C2)cc1S(=O)(=O)N(C)C`: the “hERG current change (%, negative = inhibition) at 1uM” value was determined as 2.01%. As to `O=C(NCCc1c[nH]c2ccccc12)/C(=C\c1ccco1)NC(=O)c1ccco1`, the “hERG current change (%, negative = inhibition) at 1uM” value turned out to be 13.4%. In the case of `Nc1ccn(C2CC(O)C(CO)O2)c(=O)n1` (stereo not shown) it was 8.11%; in that of `COc1ccc(N(CC(=O)NCCSc2ccccc2)S(C)(=O)=O)cc1`, 10.1%.

With `COC(=O)c1cc(C#N)c(OC)nc1C`, the “hERG current change (%, negative = inhibition) at 1uM” value stood at 16%. With `N#C/C(=C\c1ccc(-c2ccc(F)cc2)o1)C(=O)Nc1nc(-c2cccs2)cs1` the figure was 11.3%; with `O=S(=O)(c1cccc(C(F)(F)F)c1)N1CCCC1c1cccnc1` (stereo not shown), 9.57%; with `CCC(C)NC(=O)N[C@@H](Cc1ccccc1)C(=O)O` (stereo partly shown), -4.86%. Take `COc1ccccc1/C=C/C1=NC(=C\C=C/c2ccccc2)/C(=O)O1`: the “hERG current change (%, negative = inhibition) at 1uM” value is recorded as 5.3%. In the case of `CCCCCCc1cc2cc(C(=O)NC)c(=N)oc2cc1O` it was 6.88%. With `Cc1ccc(NC(=O)c2onc(C)c2Cl)cc1` the figure was 4.97%.

As to `CN1CCN(S(=O)(=O)c2ccc(NC(=S)NC(=O)C3CCC3)cc2)CC1`, the “hERG current change (%, negative = inhibition) at 1uM” value worked out at 7.31%.

As to `CCNC(=O)CC1C(=O)N(c2ccc(C)cc2)C(=O)N1CCc1sccc1C` (stereo not shown), the “hERG current change (%, negative = inhibition) at 1uM” value was -0.569%.

`CCCCNC(=O)c1cc([N+](=O)[O-])[nH]n1`: the “hERG current change (%, negative = inhibition) at 1uM” value was 19.9%. With `COc1cccc(-c2nnc(SCc3ccccn3)n2C)c1`, the “hERG current change (%, negative = inhibition) at 1uM” value is recorded as 0.907%. With `CN(C)S(=O)(=O)c1cc(C(=O)O)c(NC2CCCCC2)cc1Cl` the figure was 7.3%; with `N#CC1=C(SCC(=O)Nc2nccs2)NC(=O)CC1c1ccccc1` (stereo not shown), -7.41%. As for `CN1C(=O)/C(=C\c2ccc(-c3ccccc3)o2)SC1=S`, the “hERG current change (%, negative = inhibition) at 1uM” value came to 12.6%.

As for `Nc1nc(NCc2ccco2)nc(Nc2ccccc2)c1[N+](=O)[O-]`, the “hERG current change (%, negative = inhibition) at 1uM” value amounted to 2.48%.

As for `CC(C)c1ccc(CSc2ccc(S(=O)(=O)N3CCOCC3)cn2)cc1`, the “hERG current change (%, negative = inhibition) at 1uM” value was 8.02%. With `COc1ccc(-c2csc(NC(=O)c3cccc(S(=O)(=O)N4CCN(C)CC4)c3)n2)cc1` the figure was 6.25%; with `Cc1ccsc1/C=N/N=C/c1sccc1C`, 12.8%; with `O=C(O)C(Cc1c[nH]c2ccccc12)NS(=O)(=O)c1ccccc1` (stereo not shown), 1.94%. Take `O=C(O)CCCC(=O)Nc1c(F)c(F)c(F)c(F)c1F`: the “hERG current change (%, negative = inhibition) at 1uM” value stood at 9.46%. In the case of `CCN1C(=O)c2cccc3c(S(=O)(=O)Nc4nc(C)cs4)ccc1c23`, the “hERG current change (%, negative = inhibition) at 1uM” value came out at 14.3%. With `CC1(C)C(C(=O)O)N2C(=O)C(NC(=O)Cc3ccccc3)C2S1=O.O` (stereo not shown) the figure was 9.77%; with `CC(=O)Nc1ccc(C(=O)/C=C/c2ccc[nH]2)cc1`, 13%. In the case of `CC(C)C(C)(C#N)NC(=O)CSc1nnc(C(F)(F)F)n1C` (stereo not shown) it was 8.97%; in that of `Cc1ccc(C)c(N2CCN(C(=O)Cn3cccc3)CC2)c1`, -11.4%. With `Cc1nn(C)c(C)c1Nc1ccc(N2C(=O)C3CC=CCC3C2=O)cc1[N+](=O)[O-]` (stereo not shown) the figure was 3.98%. Consider `Cc1cc(N(C)C)nc(Nc2ccccc2)n1`, for which the “hERG current change (%, negative = inhibition) at 1uM” value is listed as -27.8%. With `O=C(NN=C1CCCCCC1)c1ccc2c(c1)OCO2` the figure was 16.9%; with `C=CCn1nnnc1-c1cccc(Cl)c1`, 13.2%.

For `CCNc1nc(NC(C)C)nc(N(C)C#N)n1`, the “hERG current change (%, negative = inhibition) at 1uM” value is 11%. As to `CC(=O)c1ccccc1NC(=O)C1CC(=O)N(c2ccc3c(c2)OCCO3)C1` (stereo not shown), the “hERG current change (%, negative = inhibition) at 1uM” value came to 12.3%.

As to `Cn1c(=O)c2c(nc(NC3CCCCC3)n2CC(=O)C23CC4CC(CC(C4)C2)C3)n(C)c1=O`, the “hERG current change (%, negative = inhibition) at 1uM” value was 15.4%. Take `Cc1[nH]n(-c2ccccc2)c(=O)c1C=Nc1cccc(F)c1`: the “hERG current change (%, negative = inhibition) at 1uM” value is listed as 20.6%. With `CC(C)C(C(=O)Nc1ccc2c(c1)OCCOCCOCCOCCO2)N1C(=O)c2ccccc2C1=O` (stereo not shown) the figure was -13.2%. Take `CN(C)CC(O)COC(c1ccccc1)c1ccccc1` (stereo not shown): the “hERG current change (%, negative = inhibition) at 1uM” value is listed as -9.84%.

In the case of `COc1ccc(CNC(=O)CN(C)Cc2ccccc2F)cc1OC`, the “hERG current change (%, negative = inhibition) at 1uM” value was determined as 3.05%. In the case of `CN1C(=O)/C(=C/c2cc(N=Nc3ccccc3)ccc2O)SC1=S` it was 2.94%. As for `CCOC(=O)C1C(=O)C=C(/C=C/c2ccc(N(C)C)cc2)CC1c1ccccc1` (stereo not shown), the “hERG current change (%, negative = inhibition) at 1uM” value was found to be 3.69%. With `O=C(NCC1CCC(C(=O)O)CC1)OCc1ccccc1` (stereo not shown) the figure was -4.81%; with `COc1ccc(CCNC(=O)C(=O)NCCC2CCCCN2S(=O)(=O)c2ccccc2)cc1` (stereo not shown), 9.02%. With `CC(C)C(=O)NCCc1nc(-c2ccccc2Cl)no1` the figure was 15.5%; with `Cc1ccc(-c2cc(C(F)(F)F)nc(SCC(=O)c3cccc([N+](=O)[O-])c3)n2)cc1`, 15.7%; with `c1ccc(-c2nc3ccccc3[nH]2)cc1`, 13.2%. With `CC(=O)c1ccc(NC(=O)CSc2nccn2C)cc1` the figure was 6.61%; with `O=C(O)CN1c2cccc3cccc(c23)S1(=O)=O`, 21.1%; with `Cc1ccc(NC(=O)CSc2nc3nc(C)cc(C)c3c(=O)[nH]2)cc1`, 12%. Take `CC1CCN(C(=O)c2ccccc2NC(=O)c2cccc(S(=O)(=O)N(C)C)c2)CC1`: the “hERG current change (%, negative = inhibition) at 1uM” value came out at 5.45%.

Take `CCCCOc1ccc(C(=O)Nn2c(-c3cccs3)nc3ccccc3c2=O)cc1`: the “hERG current change (%, negative = inhibition) at 1uM” value is -7.32%.

These data come from paper PMC4336329 (PLoS ONE, 2015).
